Publication PMC4336329 (PLoS ONE, 2015)
The campaign covered roughly 310,000 compounds. About 14,000 (4.5%) showed an effect of 50% or more. Effects have a minus sign here. The list shows a part of the results.

target: human ether-à-go-go-related gene (hERG) potassium channel (human, UniProt Q12809); assay: primary screen, population patch clamp on CHO cells stably expressing hERG
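Note: peak tail current of the secondary pulse compared with the same well before compound.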

Chain of human ether-à-go-go-related gene (hERG) potassium channel (Q12809 whole entry, looked up): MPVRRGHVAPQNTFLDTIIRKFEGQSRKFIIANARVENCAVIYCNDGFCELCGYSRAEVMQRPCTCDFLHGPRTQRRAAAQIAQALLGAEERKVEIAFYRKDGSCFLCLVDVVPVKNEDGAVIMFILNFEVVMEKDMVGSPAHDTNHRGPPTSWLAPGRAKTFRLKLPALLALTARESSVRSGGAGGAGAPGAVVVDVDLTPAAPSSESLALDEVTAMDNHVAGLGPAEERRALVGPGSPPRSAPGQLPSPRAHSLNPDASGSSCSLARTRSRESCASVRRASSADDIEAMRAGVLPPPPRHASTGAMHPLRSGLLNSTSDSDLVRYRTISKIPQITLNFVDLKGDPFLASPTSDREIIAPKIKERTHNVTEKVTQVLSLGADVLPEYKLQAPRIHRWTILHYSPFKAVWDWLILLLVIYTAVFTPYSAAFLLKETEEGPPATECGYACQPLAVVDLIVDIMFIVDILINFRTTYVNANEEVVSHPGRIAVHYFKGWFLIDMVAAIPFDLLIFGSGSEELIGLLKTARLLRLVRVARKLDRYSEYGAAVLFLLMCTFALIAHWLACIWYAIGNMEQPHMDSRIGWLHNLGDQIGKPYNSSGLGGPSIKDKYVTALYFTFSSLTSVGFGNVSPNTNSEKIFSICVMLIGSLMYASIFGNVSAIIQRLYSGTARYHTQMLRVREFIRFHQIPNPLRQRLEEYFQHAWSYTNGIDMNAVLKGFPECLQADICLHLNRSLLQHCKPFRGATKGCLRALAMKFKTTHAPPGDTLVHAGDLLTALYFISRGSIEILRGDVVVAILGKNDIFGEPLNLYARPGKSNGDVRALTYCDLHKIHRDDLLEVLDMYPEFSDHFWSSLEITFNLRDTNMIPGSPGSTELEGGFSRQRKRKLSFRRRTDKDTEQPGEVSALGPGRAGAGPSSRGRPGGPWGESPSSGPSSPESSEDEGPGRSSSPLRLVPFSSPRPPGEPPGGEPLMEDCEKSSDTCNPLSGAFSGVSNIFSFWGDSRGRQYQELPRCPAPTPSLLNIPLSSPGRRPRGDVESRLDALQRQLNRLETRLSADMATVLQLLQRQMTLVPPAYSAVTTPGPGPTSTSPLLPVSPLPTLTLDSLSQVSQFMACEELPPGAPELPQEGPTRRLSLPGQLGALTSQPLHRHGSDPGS

Structure (SMILES)	hERG current change (%, negative = inhibition) at 10uM [%]
O=C(NC1CCCCC1)c1cc(-c2ccccn2)nc2ccccc12	21.7
COCCN(CC(=O)NCc1ccccc1)C(=O)CCC(=O)Nc1nccs1	6.81
O=C1CN(C(=O)C2CC2)c2ccccc2N1	-15.8
OCC[C@H]1C[C@@H](O)[C@H](O)[C@]2(CCCO2)O1	2.25
O=C(Cc1csc(Nc2nc(=S)[nH]c3ccccc23)n1)N1CCN(c2cccc(C(F)(F)F)c2)CC1	5.5
Cn1c(SCc2ccccc2Br)nc2ccccc2c1=O	14.6
Cl.OCCNCc1cc(Br)ccc1OCc1ccc(Cl)cc1	-66.6
O=c1oc2ccc(Cl)cc2nc1/C=C(\O)c1cccs1	9.16
Cc1ccccc1NC(=O)NCc1cccnc1	18.1
O=S(=O)(NCC1CCCO1)c1cc(Cl)ccc1Cl (stereo not shown)	4.69
Cc1nn(-c2ccccc2)c(Cl)c1C(=O)Nc1c(C)n(C)n(-c2ccccc2)c1=O	6.38
O=C1CC(c2ccc(Cl)cc2)n2nc(NS(=O)(=O)c3ccc(F)cc3)nc2N1 (stereo not shown)	1.76
CN(C)S(=O)(=O)c1cc(NC(=O)c2cc(=O)c3ccccc3o2)ccc1Cl	1.08
O=C1c2ccccc2NC(c2ccc(-c3ccc(F)cc3)o2)N1O (stereo not shown)	-2.86
Cl.NS(=O)(=O)c1ccc(CCNCC#Cc2ccccc2)cc1	-21.6
COc1ccccc1C(=O)N(Cc1nc(-c2ccc(Cl)cc2)no1)C(C)C	-19.3
CCCN1C(=O)c2cc(C(=O)NCCc3cccc(C)c3)ccc2C1O (stereo not shown)	0.0443
O=C(NC1C(=O)NNC1c1ccc(Cl)cc1)c1ccc(F)cc1 (stereo not shown)	-4.18
Cc1cc(C(=O)NCc2ccccc2Cl)n(-c2ccccc2)n1	-3.77
Nc1nc(Cl)nc2ncn(Cc3ccccc3)c12	21.7
CCOc1c(O)ccc(C2NC(=O)N(C)C(C)=C2C(=O)OC)c1[N+](=O)[O-] (stereo not shown)	-0.872
CCCCN(C(=O)Nc1ccc(Cl)cc1)C1CCN(C(C)=O)CC1	-46
CSc1cccc(NC(=O)/C=C/c2ccccc2)c1	-7.06
C[C@H](NC(=O)c1nc[nH]c1C(=O)N[C@@H](C)C(=O)OC(C)(C)C)C(=O)OC(C)(C)C	-2.56
COc1ccc(NC(=O)C2=CN3CCS(=O)(=O)N=C3C=C2)c(OC)c1	12.9
